Measured values taken from a compilation of properties of binary mixtures (doi:10.1021/acs.jced.2c00294).
The densities may have been worked out from excess volumes.

Test: xn = mol fraction of the nth substance listed
Conditions: 101 kPa

CCCC[N+]1(C)CCCC1.N#C[N-]C#N + CCCC[N+]1(C)CCCC1.O=S(=O)([N-]S(=O)(=O)C(F)(F)F)C(F)(F)F
mass density (293 K, x2 = 0.5): 1242.8 kg/m3 | mass density (298 K, x2 = 0.5): 1239.1 kg/m3 | mass density (303 K, x2 = 0.5): 1235.4 kg/m3 | mass density (308 K, x2 = 0.5): 1231.7 kg/m3 | mass density (313 K, x2 = 0.5): 1228.1 kg/m3

N#C[N-]S(=O)(=O)C(F)(F)F.[Li+] + CCCC[N+]1(CCCC1)C.[N-](C#N)S(=O)(=O)C(F)(F)F
mass density (293 K, x1 = 0.05): 1247.4 kg/m3 | mass density (293 K, x1 = 0.1): 1259.2 kg/m3 | mass density (293 K, x1 = 0.2): 1285 kg/m3 | mass density (298 K, x1 = 0.05): 1243.6 kg/m3 | mass density (298 K, x1 = 0.1): 1255.5 kg/m3 | mass density (298 K, x1 = 0.2): 1281.2 kg/m3 | mass density (303 K, x1 = 0.05): 1239.9 kg/m3 | mass density (303 K, x1 = 0.2): 1277.5 kg/m3 | mass density (308 K, x1 = 0.05): 1236.2 kg/m3 | mass density (308 K, x1 = 0.1): 1248 kg/m3 | mass density (308 K, x1 = 0.2): 1275.7 kg/m3 | mass density (313 K, x1 = 0.05): 1232.5 kg/m3 | mass density (313 K, x1 = 0.1): 1244.3 kg/m3 | mass density (313 K, x1 = 0.2): 1270.1 kg/m3 | mass density (318 K, x1 = 0.05): 1228.8 kg/m3 | mass density (318 K, x1 = 0.1): 1240.6 kg/m3 | mass density (323 K, x1 = 0.2): 1262.7 kg/m3

CCCC[N+]1(C)CCCC1.N#C[N-]S(=O)(=O)C(F)(F)F + [Li+].[N-](C#N)S(=O)(=O)C(F)(F)F
mass density (293 K, x2 = 0): 1235.8 kg/m3 | mass density (298 K, x2 = 0): 1232 kg/m3 | mass density (303 K, x2 = 0): 1228.3 kg/m3 | mass density (318 K, x2 = 0): 1217.2 kg/m3 | mass density (323 K, x2 = 0): 1213.5 kg/m3
